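Each compound was tested at five concentrations against cells in 96-well plates for 48 hours. GI50: concentration for 50% inhibition of growth. TGI: concentration producing complete growth inhibition.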
System: NCI-H322M lung
Experiment: inhibition of tumour cell growth, NCI panel, 48 h

SMILES | GI50 [µM] | TGI [µM]
COc1ccc(/C(=N\NC(N)=S)c2ccc(Cl)cc2)cc1OC | 6.25 | 24.9
CCO/C=N/C1=C(C#N)C(c2ccc(Cl)cc2)c2sc3c(C)cccc3c2O1 (stereo unspecified) | 1.2 | 23.5
CCCC(=O)NC(c1cccnc1)c1cc(C(C)(C)C)c2cccnc2c1O (stereo unspecified) | 6.94 | > 100

Reference: PubChem BioAssay (NCI)
